PubChem BioAssay AID1460 (National Center for Advancing Translational Sciences (NCATS), 2008)
Out of some 270,000 compounds screened, about 5,800 (2.1%) were called active. The shares of active, inactive and inconclusive entries below differ from those in the screen. Calls follow the shape of the dose curve; as a rule, active = well fitted inhibition curve with a large enough effect; inconclusive = small, poorly fitted or top-dose-only effect; inactive = flat fitted curve, though single readings scatter. Potencies beside an inconclusive call are fits to weak or partial responses and may not hold up.

molecular target: Microtubule-associated protein tau (Homo sapiens) (UniProt P10636); assay: qHTS for Inhibitors of Tau Fibril Formation, Thioflavin T Binding; settings: recombinant tau K18 P301L, heparin-induced fibrillization, ThT fluorescence; series mostly up to 57.4 µM; also: nearly all actives have a fitted effect of over 55% in size
Outline: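 Fibril formation assay: tau K18 P301L at 15 uM with trace Alexa 594 label, heparin inducer 20 uM, pH 7 sodium acetate buffer, 37 C for 6 hr; endpoint ThT signal.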
Potency is read from the fitted curve at half-maximal effect; tags tell the direction and shape of the fitted curve.

Sequence of UniProt P10636 (P10636 whole entry, looked up): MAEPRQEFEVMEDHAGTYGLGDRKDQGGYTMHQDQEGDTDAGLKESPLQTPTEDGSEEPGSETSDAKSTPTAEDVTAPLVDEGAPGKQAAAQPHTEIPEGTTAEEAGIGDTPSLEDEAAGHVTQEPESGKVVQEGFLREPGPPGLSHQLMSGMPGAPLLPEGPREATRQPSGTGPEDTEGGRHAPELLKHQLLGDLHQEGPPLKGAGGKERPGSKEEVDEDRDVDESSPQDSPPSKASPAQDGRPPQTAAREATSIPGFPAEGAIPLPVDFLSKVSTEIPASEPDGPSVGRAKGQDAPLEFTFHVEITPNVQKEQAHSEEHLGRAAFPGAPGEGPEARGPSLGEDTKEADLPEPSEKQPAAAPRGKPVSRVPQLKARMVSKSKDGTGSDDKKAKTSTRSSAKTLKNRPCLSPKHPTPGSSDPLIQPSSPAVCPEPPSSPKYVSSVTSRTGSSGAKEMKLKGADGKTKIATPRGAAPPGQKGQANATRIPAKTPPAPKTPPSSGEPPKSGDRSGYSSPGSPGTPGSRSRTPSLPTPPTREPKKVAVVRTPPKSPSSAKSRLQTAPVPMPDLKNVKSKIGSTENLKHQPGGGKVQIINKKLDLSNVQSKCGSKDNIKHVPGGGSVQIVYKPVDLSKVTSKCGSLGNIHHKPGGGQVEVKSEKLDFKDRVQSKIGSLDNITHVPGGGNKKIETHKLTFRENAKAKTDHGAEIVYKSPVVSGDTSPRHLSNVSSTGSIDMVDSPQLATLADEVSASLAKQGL

SMILES	Potency
CC(C)Cc1cc(C(=O)Nc2sc3c(c2C#N)CCCC3)no1	inactive
Cc1ccc(Cn2nc(C)c(NC(=O)C3(C)CC3(Br)Br)c2C)cc1 (stereo unspecified)	inactive
Cc1nn(C)cc1N1C(=O)c2cccc3c(N)ccc(c23)C1=O	inconclusive: 3.98 µM [activator, partial curve]
CCCCCCC(=O)N(O)C1CC(=O)N(c2ccc(Br)cc2)C1=O (stereo unspecified)	inconclusive: 5.62 µM [inhibitor, full curve]
Cn1c(CSc2nc3ccccc3s2)nc2ccccc21	inconclusive: 10 µM [inhibitor, partial curve]
O=C1/C(=C\c2ccco2)SC(=S)N1C1CCS(=O)(=O)C1 (stereo unspecified)	active: 25.1 µM
O=C(/C=C/Nc1ccc(F)c(F)c1)c1cccs1	inconclusive: 17.8 µM [inhibitor, partial curve]
COc1ccc(N2CCN(c3c4c(nc5nncn35)CCC4)CC2)cc1	inconclusive: 25.1 µM [inhibitor, single point]
Cc1ccc(N/N=C(\C#N)C(=O)c2ccsc2)cc1	active: 14.1 µM
COc1ccc(C(=O)CSc2nnc(CN3CCCCC3)n2-c2ccc(F)cc2)cc1OC	inconclusive: 44.7 µM [inhibitor, single point]
CCn1cc(C(=O)N2CCN(c3ccc(F)cc3)CC2)c(=O)c2cc(S(=O)(=O)N3CCOCC3)ccc21	inactive
O=C1N=C(O)CN1/N=C\c1ccc(-c2ccc([N+](=O)[O-])cc2)o1	active: 14.1 µM
COc1cc(OC)c(NC(=S)Nc2cccc(C)c2)cc1Cl	inconclusive: 12.6 µM [inhibitor, partial curve]
Cc1cc(C(=O)Nc2ccccc2)oc1C	inactive
CCOC(=O)/C(C#N)=C/c1c(OCC)n(CC)c2ccccc12	inconclusive: 25.1 µM [inhibitor, single point]
N#CC1=C(N)Oc2cc(Nc3ccccc3)ccc2C1c1ccncc1 (stereo unspecified)	inconclusive: 15.8 µM [inhibitor, partial curve]
NC(CSS(=O)(=O)O)=NCCC12CC3CC(CC(O)(C3)C1)C2	active: 3.55 µM
O=C(CSc1cccc2cccnc12)N/N=C/c1cccc(O)c1	inconclusive: 17.8 µM [inhibitor, partial curve]
CCN(CC)C(=O)Cn1cc(SCC(=O)Nc2ccccc2F)c2ccccc21	inactive
CC1CC(C)CN(c2nc(N(C)c3ccccc3)nc(N)c2[N+](=O)[O-])C1 (stereo unspecified)	inconclusive: 31.6 µM [inhibitor, single point]
COc1ccc(C(=O)COC(=O)c2ccc(NC(C)=O)cc2)cc1[N+](=O)[O-]	inconclusive: 5.62 µM [inhibitor, partial curve]
Cc1nc2ccccc2cc1C(=O)NCc1ccco1	inconclusive: 2.51 µM [inhibitor, single point]
CCOc1ccc(NC(=O)c2cc3c(n(-c4ccc(OC)cc4)c2=O)CC(C)(C)CC3=O)cc1	inconclusive: 22.4 µM [inhibitor, partial curve, poor fit]
COc1cccc(CNC(=O)C2CCN(c3nn4c(=O)cc(C)nc4s3)CC2)c1	inconclusive: 5.62 µM [inhibitor, partial curve]

SMILES	Potency
O=C(NCCCN1CCN(c2cccc(Cl)c2)CC1)Nc1ccccc1C(F)(F)F	inconclusive: 35.5 µM [inhibitor, single point]
COc1ccc(C(C)=O)cc1Cn1cnc2c(cnn2C)c1=O	inactive
O=C(COCc1cc(-c2cccs2)on1)Nc1cccc(Cl)c1Cl	inconclusive: 15.8 µM [inhibitor, partial curve]
CO[C@H]1C=CO[C@@]2(C)Oc3c(C)c(O)c4c(O)c(c(C=NN5CCN(C6CCCC6)CC5)c(O)c4c3C2=O)NC(=O)C(C)=CC=C[C@H](C)[C@H](O)[C@@H](C)[C@@H](O)[C@@H](C)[C@H](OC(C)=O)[C@@H]1C	active: 17.8 µM
Cc1c(C)n(C)c2ccc(C(=O)NCc3cccs3)cc12	inconclusive: 12.6 µM [inhibitor, partial curve]
Cc1ccc(NC(=O)c2cnc3ccccc3n2)cc1C	inconclusive: 7.94 µM [inhibitor, partial curve, poor fit]
COc1ccc(NC(=O)CN2C(=O)COc3ccc(S(=O)(=O)Nc4ccccc4)cc32)cc1OC	inconclusive: 28.2 µM [inhibitor, single point]
Cc1sc2ncnc(Sc3ccccc3C(=O)Nc3ccc(C#N)cc3)c2c1C	inconclusive: 22.4 µM [inhibitor, single point]
CCOc1ccc(CC(=O)NCCc2csc(-c3ccc(C(F)(F)F)cc3)n2)cc1	inactive
O=c1oc(-c2ccc(F)cc2)nc2ccsc12	inconclusive: 8.91 µM [inhibitor, full curve, poor fit]
CC(=O)Nc1sc(N/N=C\c2cccc(Cl)c2)nc1-c1cccs1	active: 10 µM
O=C(CCC(=O)N1CC2CCCN2c2ccccc21)NCc1ccccc1 (stereo unspecified)	inactive
O=C(NC(=S)Nc1ccc(N2CCOCC2)cc1)c1cccc(Cl)c1	active: 12.6 µM
COc1ccc(CNC(=O)c2ccc3c(c2)N(C)C(=O)C2CCCCN32)cc1OC (stereo unspecified)	inactive
O=Cc1s/c(=N\S(=O)(=O)c2ccccc2)n(CCCCl)c1Cl	active: 28.2 µM
CCOC(=O)C1=C(C)N(c2ccc(OCC)cc2)C(=O)/C1=C\c1ccco1	active: 14.1 µM
CC(C)NC(=O)CC(=O)Nc1ccc2nc3n(c(=O)c2c1)CCCCC3	inactive
Cc1nn(-c2ccccc2)c(Cl)c1/C=C1\SC(=S)N(C)C1=O	inconclusive: 7.94 µM [inhibitor, partial curve]
CSc1cccc(NC(=O)C2CCN(c3ncnc4c3nc3n4CCCCC3)CC2)c1	inactive
CN(C)c1ccc(-c2cc([C@H]3[C@@H]4C=CCC[C@@]4(C)C(=O)N3Cc3ccccc3)ccc2F)cc1	inconclusive: 8.91 µM [inhibitor, full curve, poor fit]
CCOC(=O)c1cc(=O)n(Cc2ccccc2C)c2ccccc12	inconclusive: 25.1 µM [inhibitor, partial curve]
CCN1CCN(CC(=O)Nc2ccc(Cl)c(S(=O)(=O)N(C)C)c2)CC1	inactive
CCNc1nc2c(c(=O)[nH]c(=O)n2C)n1CC(O)COc1ccc(Cl)cc1Cl (stereo unspecified)	inactive
O=C(CCS(=O)(=O)c1cccs1)Nc1ccc(C(=O)Nc2cccc(Cl)c2)cc1	inconclusive: 5.01 µM [activator, single point]

SMILES	Potency
COc1ccc(N2CC(c3nc(-c4cc(OC)c(OC)c(OC)c4)no3)CC2=O)cc1Cl (stereo unspecified)	inconclusive: 31.6 µM [inhibitor, single point]
Cc1ccccc1NC(=O)Nc1ccccc1N1CCCCC1	inconclusive: 1 µM [inhibitor, single point]
CCOc1ccc(C(=O)Nc2nnc(S(=O)(=O)N(CC)c3ccccc3C)s2)cc1	inconclusive: 3.16 µM [inhibitor, full curve]
CC(=O)c1cccc(NC(=O)CCCN2C(=O)COc3ccc(C)cc32)c1	inconclusive: 39.8 µM [inhibitor, single point]
Cc1ccc(-c2cc(NC(=O)C(C)Oc3ccc(C)c(C)c3)on2)cc1 (stereo unspecified)	inconclusive: 14.1 µM [inhibitor, partial curve]
CC1(OC(=O)c2ccc(Cl)nc2)C(=O)C=C2C=C(C3CC3)OC=C2C1=O (stereo unspecified)	inactive
O=C(Nc1ccc(Cl)cc1C(F)(F)F)c1ccccc1	inactive
O=C(Nc1ccc(SC(F)F)cc1)c1cc(-c2cccs2)on1	inconclusive: 0.447 µM [inhibitor, full curve]
CC(=O)c1ccc(NC(=O)C(C)Sc2ccccn2)cc1 (stereo unspecified)	inconclusive: 39.8 µM [inhibitor, single point]
COCCn1c(SCc2cc(C(C)=O)ccc2OC)nc2cc(Cl)ccc2c1=O	inconclusive: 12.6 µM [inhibitor, partial curve]
Cc1cccc(C(=O)Nc2nnc(Cc3c[nH]c4ccccc34)s2)c1	inactive
C=CCN1CCN(c2nc3ccccc3nc2C#N)CC1	inconclusive: 35.5 µM [inhibitor, single point]
O=C(NCCSCc1c(F)cccc1Cl)C1CCN(S(=O)(=O)Cc2ccccc2)CC1	inactive
O=C(OCC#CCSc1nnc(-c2ccccc2)o1)c1cccs1	inconclusive: 11.2 µM [inhibitor, partial curve]
O=C(COc1ccc(Cl)cc1)Nc1ccccc1C(=O)OCc1cc(=O)n2ccsc2n1	inactive
O=[N+]([O-])c1ccc(-c2nc(NCC3CCCO3)c3ccccc3n2)cc1 (stereo unspecified)	inconclusive: 1.58 µM [inhibitor, full curve]
CCN1CC2=C(OC(N)=C(C#N)C2c2ccccc2)/C(=C\c2ccccc2)C1 (stereo unspecified)	inconclusive: 17.8 µM [inhibitor, partial curve]
C/C(=N\NC(=O)c1cccc(C)c1)c1ccc(N2CCOCC2)cc1	inconclusive: 1.26 µM [inhibitor, full curve]
O=S(=O)(NNc1nccc(C(F)(F)F)n1)c1cccc(Cl)c1Cl	active: 22.4 µM
Cc1ccc(C)c(NC(=O)CSc2nc3ccc(N4C(=O)c5ccccc5C4=O)cc3s2)c1	inactive
COc1cccc(C(=O)/C=C/c2ccc(N3CCCCC3)c([N+](=O)[O-])c2)c1	active: 7.94 µM
Cc1cc(C)c2c(=O)c3c(oc2c1)C(=O)N(Cc1ccc(F)cc1)C3c1cccc(O)c1 (stereo unspecified)	inactive
CC(=O)Oc1c(Cl)cc(Cl)cc1/C=C/c1ccc2ccccc2n1	inactive
